According to patent US20240181022A1, “AMURINS LYSINS, AND LYSIN-ANTIMICROBIAL PEPTIDE (AMP) CONSTRUCTS ACTIVE AGAINST GRAM-NEGATIVE BACTERIA” (priority 2021, published 2024):
Where two headings read alike, the source gives them in different places.

Tested on: P. aeruginosa strain ATCC 27853
Format: cell-based, Pseudomonas aeruginosa
Conditions: for MIC increase over the 28-day serial passage: Cation-Adjusted Mueller Hinton Broth (CAMHB); for change in antibiotic MIC after 28 days in the presence of ⅛th MIC of GN370: GN370 0.125 μg/mL
[1] = in the absence of GN370 (GN370: alone)

C[C@H]1COc2c(N3CCN(C)CC3)c(F)cc3c(=O)c(C(=O)O)cn1c23 [levofloxacin, reference compound]
MIC increase over the 28-day serial passage: ≤ 64 fold
antibiotic MIC increase after 28 days with 1/16th MIC and 1/32nd MIC of GN370 (GN370 0.0625 μg/mL and […]): 2 fold
MIC increase after 28 days, agent alone [1]: 16 fold

C[C@@H](O)[C@H]1C(=O)N2C(C(=O)O)=C(S[C@@H]3CN[C@H](C(=O)N(C)C)C3)[C@H](C)[C@H]12 [meropenem, reference compound]
MIC increase over the 28-day serial passage: up to 1024 fold
change in antibiotic MIC after 28 days in the presence of ⅛th MIC of GN370: no change in MIC
antibiotic MIC increase after 28 days in the presence of ⅛th MIC of GN370 (another instance): 2 fold
MIC increase after 28 days, agent alone [1]: 32 fold

NC[C@H]1O[C@H](O[C@H]2[C@H](O)[C@@H](O[C@H]3O[C@H](CO)[C@@H](O)[C@H](N)[C@H]3O)[C@H](N)C[C@@H]2N)[C@H](N)C[C@@H]1O [tobramycin, reference compound]
MIC increase over the 28-day serial passage: ≤ 32 fold
change in antibiotic MIC after 28 days in the presence of ⅛th MIC of GN370: no change in MIC
MIC increase after 28 days, agent alone [1]: 32 fold
MIC increase after 28 days, agent alone (in the absence of GN370, another instance): ≤ 4 fold
